Some of the results follow. Single values are uncertain, as repeats are few or missing.
system: G361; assay: cell count relative to DMSO control; melanoma cells; higher = more viable cells; settings: library dose: low library concentration; 72 h
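Note: cell number obtained by counting DAPI-stained nuclei in high-throughput microscope images with image analysis software, screen run in 1,536-well plates.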

| SMILES | cell count |
| --- | --- |
| COc1ccc(COc2ccc(Cc3cnc(N)nc3N)cc2OC)cc1 + Cc1cc(SCc2sc(-c3ccc(C(F)(F)F)c(F)c3)nc2C)ccc1OCC(=O)O [GW0742] (first compound 1 µM, partner dose 2 µM) | 99.8% |
| Clc1ccc(Nc2nnc(Cc3ccncc3)c3ccccc23)cc1 [vatalanib] + C[As](C)SC[C@H](NC(=O)CC[C@H](N)C(=O)O)C(=O)NCC(=O)O [Darinaparsin] (first compound 2 µM, partner dose 0.4 µM) | 101% |
| COc1ccc(COc2ccc(Cc3cnc(N)nc3N)cc2OC)cc1 + C/C(O)=C(\C#N)C(=O)Nc1cc(Br)ccc1Br [LFM-A13] (first compound 1 µM, partner dose 2 µM) | 114% |
| COCC[n+]1c2c(n(Cc3cnccn3)c1C)C(=O)c1ccccc1C2=O + Cc1cc(SCc2sc(-c3ccc(C(F)(F)F)c(F)c3)nc2C)ccc1OCC(=O)O [GW0742] (first compound 0.0004 µM, partner dose 2 µM) | 94.1% |
| O=C(CCCCCCC(=O)Nc1ccccc1)NO [vorinostat] + Cc1cc(SCc2sc(-c3ccc(C(F)(F)F)c(F)c3)nc2C)ccc1OCC(=O)O [GW0742] (first compound 0.08 µM, partner dose 2 µM) | 105% |
| Cc1cc(Nc2cc(N3CCN(C)CC3)nc(Sc3ccc(NC(=O)C4CC4)cc3)n2)n[nH]1 [Tozasertib] + C[C@]12O[C@H](C[C@]1(O)CO)n1c3ccccc3c3c4c(c5c6ccccc6n2c5c31)CNC4=O [Lestaurtinib] (first compound 0.006 µM, partner dose 0.004 µM) | 92.3% |
| O=C(O)c1ccc2c(c1)nc(Nc1cccc(Cl)c1)c1ccncc12 + C[As](C)SC[C@H](NC(=O)CC[C@H](N)C(=O)O)C(=O)NCC(=O)O [Darinaparsin] (first compound 0.4 µM, partner dose 0.4 µM) | 90.5% |
| Cn1c(Nc2ccc(C(F)(F)F)cc2)nc2cc(Oc3ccnc(-c4ncc(C(F)(F)F)[nH]4)c3)ccc21 + Cc1cc(SCc2sc(-c3ccc(C(F)(F)F)c(F)c3)nc2C)ccc1OCC(=O)O [GW0742] (first compound 0.08 µM, partner dose 2 µM) | 69.6% |
| C#Cc1cccc(Nc2ncnc3cc(OCCOC)c(OCCOC)cc23)c1 [erlotinib] + O=C(Oc1ccc([N+](=O)[O-])cc1)N1CCC(C(O)(c2ccc3c(c2)OCO3)c2ccc3c(c2)OCO3)CC1 [JZL184] (first compound 0.8 µM, partner dose 1 µM) | 90% |
| Cc1cc(Nc2cc(N3CCN(C)CC3)nc(Sc3ccc(NC(=O)C4CC4)cc3)n2)n[nH]1 [Tozasertib] + Cn1cc(C2=C(c3cn(C4CCN(Cc5ccccn5)CC4)c4ccccc34)C(=O)NC2=O)c2ccccc21 [Enzastaurin] (first compound 0.006 µM, partner dose 0.8 µM) | 103% |
| O=C(CCCCCCC(=O)Nc1ccccc1)NO [vorinostat] + C/C(O)=C(\C#N)C(=O)Nc1cc(Br)ccc1Br [LFM-A13] (first compound 0.08 µM, partner dose 2 µM) | 96.3% |
| Oc1cc(-c2nc(-c3ccccc3)[nH]c2-c2ccncc2)ccc1Cl + C/C(O)=C(\C#N)C(=O)Nc1cc(Br)ccc1Br [LFM-A13] (first compound 0.2 µM, partner dose 2 µM) | 86.4% |
| c1cc(-c2cnn3cc(-c4ccc(OCCN5CCCCC5)cc4)cnc23)ccn1 [Dorsomorphin] + O=C(Oc1ccc([N+](=O)[O-])cc1)N1CCC(C(O)(c2ccc3c(c2)OCO3)c2ccc3c(c2)OCO3)CC1 [JZL184] (first compound 0.4 µM, partner dose 1 µM) | 84.8% |
| CN1CCN(c2ccc3nc(-c4c(N)c5c(F)cccc5[nH]c4=O)[nH]c3c2)CC1 [Dovitinib] + C[As](C)SC[C@H](NC(=O)CC[C@H](N)C(=O)O)C(=O)NCC(=O)O [Darinaparsin] (first compound 0.1 µM, partner dose 0.4 µM) | 82.2% |
| Cc1cc(Nc2cc(N3CCN(C)CC3)nc(Sc3ccc(NC(=O)C4CC4)cc3)n2)n[nH]1 [Tozasertib] + C[As](C)SC[C@H](NC(=O)CC[C@H](N)C(=O)O)C(=O)NCC(=O)O [Darinaparsin] (first compound 0.006 µM, partner dose 0.4 µM) | 89% |
| C#Cc1cccc(Nc2ncnc3cc(OCCOC)c(OCCOC)cc23)c1 [erlotinib] + C/C(O)=C(\C#N)C(=O)Nc1cc(Br)ccc1Br [LFM-A13] (first compound 0.8 µM, partner dose 2 µM) | 112% |
| Oc1nc(-c2ccc(C(F)(F)F)cc2)nc2c1CSCC2 + O=C(Oc1ccc([N+](=O)[O-])cc1)N1CCC(C(O)(c2ccc3c(c2)OCO3)c2ccc3c(c2)OCO3)CC1 [JZL184] (first compound 2 µM, partner dose 1 µM) | 104% |

| SMILES | cell count |
| --- | --- |
| C[C@@H]1CCN(C(=O)CC#N)C[C@@H]1N(C)c1ncnc2[nH]ccc12 + Cc1cc(SCc2sc(-c3ccc(C(F)(F)F)c(F)c3)nc2C)ccc1OCC(=O)O [GW0742] (first compound 1 µM, partner dose 2 µM) | 103% |
| COc1cc2ncnc(Nc3ccc(Oc4ccccc4)cc3)c2cc1OC + O=C(Oc1ccc([N+](=O)[O-])cc1)N1CCC(C(O)(c2ccc3c(c2)OCO3)c2ccc3c(c2)OCO3)CC1 [JZL184] (first compound 2 µM, partner dose 1 µM) | 109% |
| C[C@@H]1CCN(C(=O)CC#N)C[C@@H]1N(C)c1ncnc2[nH]ccc12 + C/C(O)=C(\C#N)C(=O)Nc1cc(Br)ccc1Br [LFM-A13] (first compound 1 µM, partner dose 2 µM) | 103% |
| COCC[n+]1c2c(n(Cc3cnccn3)c1C)C(=O)c1ccccc1C2=O + C/C(O)=C(\C#N)C(=O)Nc1cc(Br)ccc1Br [LFM-A13] (first compound 0.0004 µM, partner dose 2 µM) | 97.5% |
| Cc1cc(Nc2cc(N3CCN(C)CC3)nc(Sc3ccc(NC(=O)C4CC4)cc3)n2)n[nH]1 [Tozasertib] + N.N.[Cl][Pt][Cl] [cisplatin] (first compound 0.006 µM, partner dose 1.6 µM) | 98.9% |
| COc1cc2ncnc(Nc3ccc(Oc4ccccc4)cc3)c2cc1OC + C/C(O)=C(\C#N)C(=O)Nc1cc(Br)ccc1Br [LFM-A13] (first compound 2 µM, partner dose 2 µM) | 100% |
| O=C(O)C(=O)Nc1sc2c(c1C(=O)O)CCNC2 + O=C(Oc1ccc([N+](=O)[O-])cc1)N1CCC(C(O)(c2ccc3c(c2)OCO3)c2ccc3c(c2)OCO3)CC1 [JZL184] (first compound 1.66667 µM, partner dose 1 µM) | 104% |
| CC(C)C[C@H](NC(=O)[C@H](Cc1ccccc1)NC(=O)c1cnccn1)B(O)O [Bortezomib] + N.N.[Cl][Pt][Cl] [cisplatin] (first compound 0.001 µM, partner dose 1.6 µM) | 8.51% |
| CC(C)C[C@H](NC(=O)[C@H](Cc1ccccc1)NC(=O)c1cnccn1)B(O)O [Bortezomib] + C[As](C)SC[C@H](NC(=O)CC[C@H](N)C(=O)O)C(=O)NCC(=O)O [Darinaparsin] (first compound 0.001 µM, partner dose 0.4 µM) | 6.96% |
| Cc1nc(Nc2ncc(C(=O)Nc3c(C)cccc3Cl)s2)cc(N2CCN(CCO)CC2)n1 [dasatanib] + C/C(O)=C(\C#N)C(=O)Nc1cc(Br)ccc1Br [LFM-A13] (first compound 0.004 µM, partner dose 2 µM) | 90.9% |
| Cn1c(Nc2ccc(C(F)(F)F)cc2)nc2cc(Oc3ccnc(-c4ncc(C(F)(F)F)[nH]4)c3)ccc21 + O=C(Oc1ccc([N+](=O)[O-])cc1)N1CCC(C(O)(c2ccc3c(c2)OCO3)c2ccc3c(c2)OCO3)CC1 [JZL184] (first compound 0.08 µM, partner dose 1 µM) | 66.4% |
| C#Cc1cccc(Nc2ncnc3cc(OCCOC)c(OCCOC)cc23)c1 [erlotinib] + C[As](C)SC[C@H](NC(=O)CC[C@H](N)C(=O)O)C(=O)NCC(=O)O [Darinaparsin] (first compound 0.8 µM, partner dose 0.4 µM) | 101% |
| Nc1ccn([C@@H]2O[C@H](CO)[C@@H](O)C2(F)F)c(=O)n1 [gemcitabine] + C[As](C)SC[C@H](NC(=O)CC[C@H](N)C(=O)O)C(=O)NCC(=O)O [Darinaparsin] (first compound 0.0004 µM, partner dose 0.4 µM) | 82.8% |
| COc1cc(N2CCC(N3CCN(C)CC3)CC2)ccc1Nc1ncc(Cl)c(Nc2ccccc2S(=O)(=O)C(C)C)n1 + O=C(Oc1ccc([N+](=O)[O-])cc1)N1CCC(C(O)(c2ccc3c(c2)OCO3)c2ccc3c(c2)OCO3)CC1 [JZL184] (first compound 0.08 µM, partner dose 1 µM) | 93.4% |
| Cn1c(Nc2ccc(C(F)(F)F)cc2)nc2cc(Oc3ccnc(-c4ncc(C(F)(F)F)[nH]4)c3)ccc21 + C/C(O)=C(\C#N)C(=O)Nc1cc(Br)ccc1Br [LFM-A13] (first compound 0.08 µM, partner dose 2 µM) | 53.2% |
| CO[C@H]1C[C@@H]2CC[C@@H](C)[C@@](O)(O2)C(=O)C(=O)N2CCCC[C@H]2C(=O)O[C@H]([C@H](C)C[C@@H]2CC[C@@H](OCCO)[C@H](OC)C2)CC(=O)[C@H](C)/C=C(\C)[C@@H](O)[C@@H](OC)C(=O)[C@H](C)C[C@H](C)/C=C/C=C/C=C/1C [everolimus] + C[As](C)SC[C@H](NC(=O)CC[C@H](N)C(=O)O)C(=O)NCC(=O)O [Darinaparsin] (first compound 0.02 µM, partner dose 0.4 µM) | 63.4% |
| C=CCn1c(=O)c2cnc(Nc3ccc(N4CCN(C)CC4)cc3)nc2n1-c1cccc(C(C)(C)O)n1 + O=C(Oc1ccc([N+](=O)[O-])cc1)N1CCC(C(O)(c2ccc3c(c2)OCO3)c2ccc3c(c2)OCO3)CC1 [JZL184] (first compound 0.02 µM, partner dose 1 µM) | 92.2% |
